# In all, about 110,000 compounds were measured (“z-score”: median about -0.1, highest 2% from about 2 on). Some of the results follow.
# Target: Metabotropic glutamate receptor 8 (Rattus norvegicus) (UniProt P70579)
# Assay: rat mGluR8 modulators via GIRK flux, primary screen, cell-based, thallium flux, HTS (AID 488969)
# Conditions: HEK293 rat mGluR8, GIRK (G protein-gated inwardly rectifying potassium channel) thallium flux, FluoZin2; at 10 µM; stronger effect = higher value; submaximal glutamate (EC20) added with thallium
# Sequence of UniProt P70579 (P70579 whole entry, looked up): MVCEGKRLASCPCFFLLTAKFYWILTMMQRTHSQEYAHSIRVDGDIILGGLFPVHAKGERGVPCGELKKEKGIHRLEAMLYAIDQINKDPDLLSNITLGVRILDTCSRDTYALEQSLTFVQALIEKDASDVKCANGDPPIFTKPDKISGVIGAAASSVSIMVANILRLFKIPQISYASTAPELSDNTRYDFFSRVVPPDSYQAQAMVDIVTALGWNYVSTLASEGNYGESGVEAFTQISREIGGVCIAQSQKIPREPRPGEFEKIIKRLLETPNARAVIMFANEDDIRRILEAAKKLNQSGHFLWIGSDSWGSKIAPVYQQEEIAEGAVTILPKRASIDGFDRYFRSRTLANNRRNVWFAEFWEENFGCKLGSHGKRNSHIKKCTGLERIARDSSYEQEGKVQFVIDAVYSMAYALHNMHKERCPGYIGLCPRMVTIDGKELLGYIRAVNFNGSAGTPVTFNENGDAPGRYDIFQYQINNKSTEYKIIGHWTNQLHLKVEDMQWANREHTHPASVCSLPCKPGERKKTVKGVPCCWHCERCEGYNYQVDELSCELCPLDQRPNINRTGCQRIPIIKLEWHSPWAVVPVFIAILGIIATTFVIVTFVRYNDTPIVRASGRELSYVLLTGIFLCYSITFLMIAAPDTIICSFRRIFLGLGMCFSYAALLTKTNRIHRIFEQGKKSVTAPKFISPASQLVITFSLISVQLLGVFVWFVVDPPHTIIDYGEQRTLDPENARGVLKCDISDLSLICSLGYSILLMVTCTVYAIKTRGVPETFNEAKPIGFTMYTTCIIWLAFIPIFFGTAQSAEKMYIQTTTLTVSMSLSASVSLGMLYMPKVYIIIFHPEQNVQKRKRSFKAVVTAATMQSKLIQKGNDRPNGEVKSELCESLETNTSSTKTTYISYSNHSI
row,SMILES,z-score
1,CCCCn1c(=O)cc(O)c2ccccc21,-1.3
2,Cc1ccccc1OCC(=O)N/N=C/c1cccn1C,2.42
3,O=C(CCCCCN1C(=O)c2ccccc2C1=O)Nc1nccs1,1.12
4,O=C(c1cc(-c2ccco2)on1)N1CCOCC1,0.971
5,O=S(=O)(NCC1CCCO1)c1ccc(Br)s1 (stereo not drawn),-0.145
6,CC(NC(=O)Cn1nc(C(=O)O)c2ccccc2c1=O)c1ccccc1 (stereo not drawn),-0.245
7,Cc1nnc2sc(-c3ccc(NC(=O)c4ccc(-c5ccc(Cl)cc5Cl)o4)cc3)nn12,-0.439
8,CCOC(=O)Cc1csc(/N=C/c2c(O)n(-c3ccc(C)cc3C)c(=O)c3ccccc23)n1,-0.0586
9,CC(C)C(=O)NCCc1nc2ccccc2n1CCCOc1ccc(Cl)cc1,-0.512
10,CC(C)CN(CC(C)C)C(=O)CS(=O)(=O)Cc1ccccc1,0.0475
11,COc1cc(Br)cc2cc(C(=O)N3CCN(c4ccccn4)CC3)c(=O)oc12,-0.0926
12,COCC(=O)Nc1sc2c(c1C(=O)OC)C(C(=O)OC)CC2 (stereo not drawn),-0.174
13,O=c1[nH]c(CN2CCN(c3ccccc3)CC2)nc2ccccc12,0.214
14,O=C(Nn1c(C2CCCCC2)nc2ccccc2c1=O)c1ccc(Cl)c([N+](=O)[O-])c1,-0.501
15,CC1CCN(S(=O)(=O)c2ccc3ccccc3c2)CC1,-0.637
16,CCOC(=O)c1[nH]c2ccc(OC)cc2c1NC(=S)N1CCN(c2ccccc2)CC1,-0.482
17,C=CCn1c(SCc2ccc(C(=O)Nc3nccs3)cc2)nnc1-c1ccc(C)c(Cl)c1,-0.311
18,N#Cc1c(NC(=O)C2CC=CCC2C(=O)O)sc2c1CCCCCC2 (stereo not drawn),0.0265
19,COc1ccc(NC(=O)C(C)N(c2ccc(C)cc2)S(C)(=O)=O)cc1 (stereo not drawn),0.0624
20,CC(=O)Oc1ccc(-c2csnn2)cc1,-0.443

row,SMILES,z-score
1,CCOC(=O)N1CCC(NC(=O)CCC(=O)N2CCOc3ccccc32)CC1,-0.0937
2,CCOc1ccc(-c2cn(S(=O)(=O)c3cccc4nsnc34)nc2N)cc1,-0.465
3,N#CCSc1nnc(-c2ccccc2O)n1CCc1ccccc1,-0.139
4,C#CCOC(=O)c1ccccc1C(=O)O,0.0802
5,COc1ccc(C)cc1NC(=O)C(OC(=O)c1cccc(S(=O)(=O)N(C)c2ccccc2)c1)c1ccccc1 (stereo not drawn),0.282
6,Cc1ccc(CSC2=CS(=O)(=O)c3ccccc3N2)cc1,0.0364
7,Cc1ccc(NCCC(=O)c2cccc([N+](=O)[O-])c2)cc1,-0.234
8,C=CCSC1=Nc2sccc2C2=NC(=O)CN12,-0.0222
9,O=C(NCc1cccs1)c1ccc(Cl)s1,0.24
10,Cc1ccccc1NC(=S)NCc1ccccc1,-0.16
11,O=C(CS(=O)(=O)Cc1ccccc1)Nc1nc2ccccc2s1,0.0746
12,O=C(Nc1nnc(SCc2ccccn2)s1)C1CC(=O)N(c2ccccc2)C1 (stereo not drawn),1.19
13,CCN(C(=O)c1cc2cc(OC)ccc2oc1=O)c1cccc(C)c1,-0.38
14,COc1cc(CCN2C(=O)c3cccc4cccc(c34)C2=O)c(S(=O)(=O)N2CCC(C)CC2)cc1OC,-2.51
15,COC(=O)c1cc(Br)c(=O)n(-c2ccccc2F)c1,-0.00368
16,O=C(Cc1ccccc1)NCC(=O)N1CCCCCC1,-0.585
17,COc1ccc(/C=N/NC(=O)CCc2c(C)n[nH]c2C)cc1O,-0.508
18,Cc1ccc(S(=O)(=O)NCC(=O)N2CCOCC2)cc1,-0.157
19,CCOC(=O)N1CCC(Nc2nc(OC)nc(OC)n2)CC1,-0.282
20,Cc1cc(NC(=O)CN2CCN(S(=O)(=O)c3ccc4ccccc4c3)CC2)no1,0.162

row,SMILES,z-score
1,CC(C)(C)C1=C[C@@H](CO)C[C@@H](CO)C1,0.666
2,COc1cccc(C2N(c3cccc(Cl)c3)C(=O)C3CCCN32)c1OC (stereo not drawn),0.635
3,CCc1c(C)nc2nc(NC(C)=O)[nH]n2c1=O,-0.11
4,O=S(=O)(/N=C/c1c(O)ccc2ccccc12)c1cccs1,-0.194
5,CCNc1nc(Sc2ccc(C)cc2)cc(C(F)(F)F)n1,-0.206
6,c1cc(C(c2nnnn2C2CCCC2)N2CCOCC2)ccn1 (stereo not drawn),0.629
7,O=C1CC(c2ccccc2)CC(O)=C1C=NC1CCCCC1 (stereo not drawn),-0.0397
8,Cc1nn(C(C)CC(=O)O)c(C)c1C (stereo not drawn),-0.0477
9,NC(=O)C(c1ccccc1)c1ncc(C(F)(F)F)cc1Cl (stereo not drawn),0.0182
10,COc1cc(/C=C/C(=O)OCC(=O)NCc2cccs2)ccc1OCC#N,-0.104
11,CCn1c(=O)cc(OCC(=O)NCc2cccnc2)c2ccccc21,-0.465
12,COC(=O)c1ccc(NC(=O)CCS(=O)(=O)c2ccc(Br)s2)cc1,0.0553
13,COc1ccc(CCNC(=O)COC(=O)c2cnc(C)cn2)cc1,-0.416
14,O=C(CCN1C(=O)c2ccccc2S1(=O)=O)Nc1ccc2c(c1)OCCO2,0.367
15,CCc1noc(N)c1C(=O)Nc1ccc(F)c(Cl)c1,0.943
16,O=C(C1CCC(N2C(=O)C3CC=CCC3C2=O)CC1)N1CCCCC1 (stereo not drawn),-0.555
17,O=C(Nc1ccc2c(c1)OCO2)c1ccc(Br)o1,0.0351
18,CCOC(=O)Cn1cnc2c(nnn2-c2ccc(C)cc2)c1=O,-0.131

# — PubChem BioAssay AID488969 (Vanderbilt High Throughput Screening Facility, 2010)
